{"source": "the supplement of paper PMC8728848", "binders": {"B1": {"name": "Gal 3C (Homo sapiens), P17931 (protein)", "chain": "YGAPAGPLIVPYNLPLPGGVVPRMLITILGTVKPNANRIALDFQRGNDVAFHFNPRFNENNRRVIVCNTKLDNNWGREERQSVFPFESGKPFKIQVLVEPDHFKVAVNDAHLLQYNHRVKKLNEISKLGISGDIDLTSASYTMI"}}, "test_in_all_cases": "glycan array binding signal (z-score within array); higher = stronger binding", "conditions_in_all_cases": "glycan notation: IUPAC condensed, linker removed", "key": {"[1]": {"molecular_target": "Neu5Ac(a2-6)GlcNAc(b1-4)GlcNAc", "outline": "(§1)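 The Consortium for Functional Glycomics database supplied 3228 glycan arrays, of which those lacking an available protein sequence were dropped. The binding signal, a within-array Z-score, was averaged across arrays of the same protein sequence and across linkers. Negative scores can be read as non-binding.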"}, "[2]": {"molecular_target": "Neu5Ac(a2-6)GlcNAc(b1-4)GlcNAc(b1-4)GlcNAc", "outline": "as §1"}, "Neu5Ac(a2-8)Neu5Ac": {"molecular_target": "Neu5Ac(a2-8)Neu5Ac", "outline": "as §1"}, "[3]": {"molecular_target": "Neu5Ac(a2-8)Neu5Ac(a2-3)Gal(b1-3)GalNAc(b1-4)[Neu5Ac(a2-3)]Gal(b1-4)Glc", "outline": "as §1"}, "[4]": {"molecular_target": "Neu5Ac(a2-8)Neu5Ac(a2-3)Gal(b1-3)GalNAc(b1-4)[Neu5Ac(a2-8)Neu5Ac(a2-3)]Gal(b1-4)Glc", "outline": "as §1"}, "[5]": {"molecular_target": "Neu5Ac(a2-8)Neu5Ac(a2-3)Gal(b1-4)Glc", "outline": "as §1"}, "[6]": {"molecular_target": "Neu5Ac(a2-8)Neu5Ac(a2-3)Gal(b1-4)GlcNAc", "outline": "as §1"}, "[7]": {"molecular_target": "Neu5Ac(a2-8)Neu5Ac(a2-3)[Gal(b1-3)GalNAc(b1-4)]Gal(b1-4)Glc", "outline": "as §1"}, "[8]": {"molecular_target": "Neu5Ac(a2-8)Neu5Ac(a2-3)[GalNAc(b1-4)]Gal(b1-4)Glc", "outline": "as §1"}, "[9]": {"molecular_target": "Neu5Ac(a2-8)Neu5Ac(a2-8)Neu5Ac", "outline": "as §1"}, "[10]": {"molecular_target": "Neu5Ac(a2-8)Neu5Ac(a2-8)Neu5Ac(a2-3)Gal(b1-4)Glc", "outline": "as §1"}, "[11]": {"molecular_target": "Neu5Ac(a2-8)Neu5Ac(a2-8)Neu5Ac(a2-3)[Gal(b1-3)GalNAc(b1-4)]Gal(b1-4)Glc", "outline": "as §1"}, "[12]": {"molecular_target": "Neu5Ac(a2-8)Neu5Ac(a2-8)Neu5Ac(a2-3)[GalNAc(b1-4)]Gal(b1-4)Glc", "outline": "as §1"}, "[13]": {"molecular_target": "Neu5Ac(a2-8)Neu5Ac(a2-8)Neu5Ac(a2-8)Neu5Ac(a2-3)[GalNAc(b1-4)]Gal(b1-4)Glc", "outline": "as §1"}, "[14]": {"molecular_target": "Neu5Ac(a2-8)Neu5Gc(a2-3)Gal(b1-4)GlcNAc", "outline": "as §1"}, "[15]": {"molecular_target": "Neu5Ac(b2-6)Gal(b1-4)GlcNAc", "outline": "as §1"}, "Neu5Ac(b2-6)GalNAc": {"molecular_target": "Neu5Ac(b2-6)GalNAc", "outline": "as §1"}, "[16]": {"molecular_target": "Neu5Ac9Ac(a2-3)Gal(b1-3)GlcNAc", "outline": "as §1"}, "[17]": {"molecular_target": "Neu5Ac9Ac(a2-3)Gal(b1-4)GlcNAc", "outline": "as §1"}, "[18]": {"molecular_target": "Neu5Ac9Ac(a2-6)Gal(b1-4)GlcNAc", "outline": "as §1"}, "[19]": {"molecular_target": "Neu5Gc(a2-3)Gal(b1-3)GlcNAc", "outline": "as §1"}, "[20]": {"molecular_target": "Neu5Gc(a2-3)Gal(b1-3)[Fuc(a1-4)]GlcNAc", "outline": "as §1"}, "Neu5Gc(a2-3)Gal(b1-4)Glc": {"molecular_target": "Neu5Gc(a2-3)Gal(b1-4)Glc", "outline": "as §1"}, "[21]": {"molecular_target": "Neu5Gc(a2-3)Gal(b1-4)GlcNAc", "outline": "as §1"}, "[22]": {"molecular_target": "Neu5Gc(a2-3)Gal(b1-4)GlcNAc(b1-3)Gal(b1-4)GlcNAc(b1-2)Man(a1-3)[Neu5Gc(a2-3)Gal(b1-4)GlcNAc(b1-3)Gal(b1-4)GlcNAc(b1-2)Man(a1-6)]Man(b1-4)GlcNAc(b1-4)GlcNAc", "outline": "as §1"}, "[23]": {"molecular_target": "Neu5Gc(a2-3)Gal(b1-4)[Fuc(a1-3)]GlcNAc", "outline": "as §1"}, "[24]": {"molecular_target": "Neu5Gc(a2-6)Gal(b1-4)GlcNAc", "outline": "as §1"}, "Neu5Gc(a2-6)GalNAc": {"molecular_target": "Neu5Gc(a2-6)GalNAc", "outline": "as §1"}, "[25]": {"molecular_target": "Neu5Gc(a2-8)Neu5Ac(a2-3)Gal(b1-4)GlcNAc", "outline": "as §1"}, "[26]": {"molecular_target": "Neu5Gc(a2-8)Neu5Gc(a2-3)Gal(b1-4)GlcNAc", "outline": "as §1"}, "[27]": {"molecular_target": "Neu5Gc(a2-8)Neu5Gc(a2-3)Gal(b1-4)GlcNAc(b1-3)Gal(b1-4)GlcNAc", "outline": "as §1"}, "[28]": {"molecular_target": "Neu5Gc(a2-8)Neu5Gc(a2-6)Gal(b1-4)GlcNAc", "outline": "as §1"}, "[29]": {"molecular_target": "Neu5Gc(b2-6)Gal(b1-4)GlcNAc", "outline": "as §1"}}, "note": "This is one part of the list.", "data": [{"binder": "B1", "values": [{"measurement": "glycan array binding signal (z-score)", "setting": "[1]", "result": -0.354}, {"measurement": "glycan array binding signal (z-score)", "setting": "[2]", "result": -0.319}, {"measurement": "glycan array binding signal (z-score)", "setting": "Neu5Ac(a2-8)Neu5Ac", "result": -0.25}, {"measurement": "glycan array binding signal (z-score)", "setting": "[3]", "result": -0.329}, {"measurement": "glycan array binding signal (z-score)", "setting": "[4]", "result": -0.226}, {"measurement": "glycan array binding signal (z-score)", "setting": "[5]", "result": -0.35}, {"measurement": "glycan array binding signal (z-score)", "setting": "[6]", "result": -0.266}, {"measurement": "glycan array binding signal (z-score)", "setting": "[7]", "result": -0.3}, {"measurement": "glycan array binding signal (z-score)", "setting": "[8]", "result": -0.291}, {"measurement": "glycan array binding signal (z-score)", "setting": "[9]", "result": -0.323}, {"measurement": "glycan array binding signal (z-score)", "setting": "[10]", "result": -0.331}, {"measurement": "glycan array binding signal (z-score)", "setting": "[11]", "result": -0.326}, {"measurement": "glycan array binding signal (z-score)", "setting": "[12]", "result": -0.185}, {"measurement": "glycan array binding signal (z-score)", "setting": "[13]", "result": -0.318}, {"measurement": "glycan array binding signal (z-score)", "setting": "[14]", "result": -0.342}, {"measurement": "glycan array binding signal (z-score)", "setting": "[15]", "result": -0.332}, {"measurement": "glycan array binding signal (z-score)", "setting": "Neu5Ac(b2-6)GalNAc", "result": -0.354}, {"measurement": "glycan array binding signal (z-score)", "setting": "[16]", "result": -0.309}, {"measurement": "glycan array binding signal (z-score)", "setting": "[17]", "result": -0.019}, {"measurement": "glycan array binding signal (z-score)", "setting": "[18]", "result": -0.257}, {"measurement": "glycan array binding signal (z-score)", "setting": "[19]", "result": -0.304}, {"measurement": "glycan array binding signal (z-score)", "setting": "[20]", "result": -0.213}, {"measurement": "glycan array binding signal (z-score)", "setting": "Neu5Gc(a2-3)Gal(b1-4)Glc", "result": -0.25}, {"measurement": "glycan array binding signal (z-score)", "setting": "[21]", "result": -0.242}, {"measurement": "glycan array binding signal (z-score)", "setting": "[22]", "result": -0.152}, {"measurement": "glycan array binding signal (z-score)", "setting": "[23]", "result": -0.278}, {"measurement": "glycan array binding signal (z-score)", "setting": "[24]", "result": -0.31}, {"measurement": "glycan array binding signal (z-score)", "setting": "Neu5Gc(a2-6)GalNAc", "result": -0.335}, {"measurement": "glycan array binding signal (z-score)", "setting": "[25]", "result": -0.295}, {"measurement": "glycan array binding signal (z-score)", "setting": "[26]", "result": -0.336}, {"measurement": "glycan array binding signal (z-score)", "setting": "[27]", "result": -0.301}, {"measurement": "glycan array binding signal (z-score)", "setting": "[28]", "result": -0.295}, {"measurement": "glycan array binding signal (z-score)", "setting": "[29]", "result": -0.327}]}]}
